# Assay results: PubChem BioAssay AID686971 (National Center for Advancing Translational Sciences (NCATS), 2013)
# About 7,500 (2.1%) of roughly 360,000 compounds were called active. The inconclusive results got no clear call from the source; some entries with a clear call stand among them for comparison. Calls follow the shape of the dose curve; as a rule, active = well fitted cell-killing curve with a large enough effect; inconclusive = small, poorly fitted or top-dose-only effect, or effect the other way, or another doubt; inactive = no such curve, though single readings can be large or run the other way. No potency is given beside an inconclusive call; the fits are too rough.
# Experiment: qHTS for induction of synthetic lethality in tumor cells producing 2HG: qHTS for the HT-1080-IDH1KD cell line;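 as to activity, negative = toxicity: 0% = DMSO wells and -100% = cell-free medium wells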
# Settings: HT-1080 IDH1 knockdown viability, ATP luminescence, 48 h; activity, negative = toxicity: at 46.1 µM (top of the series) unless noted
# Summary of the method: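 Knockdown cells (IDH1KD HT-1080) received compounds 2 h after plating at 750 cells/well and were kept 48 h at 37 °C in 5% FBS RPMI. A CellTiter-Glo luminescence read gave % activity for curve fitting.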
# Potency is read from the fitted curve at half-maximal effect; tags tell the direction and shape of the fitted curve.
SMILES,Potency,"activity, negative = toxicity"
Cn1c(/C=C/c2cccc([N+](=O)[O-])c2)c([N+](=O)[O-])c(=O)n(C)c1=O,"inconclusive [cytotoxic, partial curve]",–
CC(C)N(CCNC(=O)COc1ccc2oc3c(c2c1)CCCC3)C(C)C,"inconclusive [cytotoxic, single point]",–
CNC(=O)C(Sc1nc(C)nc2c1oc1ccccc12)C(C)=O (stereo unspecified),"inconclusive [cytotoxic, single point]",–
Cc1cc(C)n(CC(C)NCc2cn[nH]c2-c2ccc(C)c(C)c2)n1 (stereo unspecified),–,inactive: -4.04%
CCCN(CC(=O)Nc1ccccc1C)C(=O)c1ccc(C)c(S(=O)(=O)N2CCCCC2)c1,–,inactive: -17.9%
CCCCCCCCN1C(=O)[C@H](CC(=O)N2CCN(C(=O)c3ccco3)CC2)C[C@@]2(C(=O)OCC)CCCC=C12,"inconclusive [cytotoxic, single point]",–
O=C(CSC1=NNC(c2ccccn2)S1)Nc1cccc(Cl)c1 (stereo unspecified),"inconclusive [cytotoxic, partial curve]",–
Cc1ccsc1/C=C/c1ccc2cccc(O)c2n1,active: 11.2 µM,–
COc1ccc(C(CCNCc2ccc(F)cc2)c2ccc(F)cc2)cc1 (stereo unspecified),active: 23.1 µM,–
CCCCNCCCOc1cccc(Cl)c1Cl,"inconclusive [cytotoxic, single point]",–
O=C(NCc1ccccc1)c1nc(S(=O)(=O)Cc2ccccc2)ncc1Cl,"inconclusive [cytotoxic, single point]",–
CN1CCN(CCC(=O)Nc2ccccc2)CC1,–,inactive: 14%
O=C(c1cccc(S(=O)(=O)N2CCN(c3ccc(F)cc3)CC2)c1)N1CCCC(C(F)(F)F)C1 (stereo unspecified),"inconclusive [cytotoxic, single point]",–
COc1ccc(C2C3=C(CCCC3=O)Nc3c(-c4ccccc4)c(C)nn32)cc1 (stereo unspecified),"inconclusive [cytotoxic, partial curve]",–
CCCCCCCCCC(=O)N1c2ccccc2NC(=O)C1CC(=O)Nc1ccc(C(=O)O)cc1 (stereo unspecified),"inconclusive [cytotoxic, single point]",–
CCNC(=O)COc1ccc(/C=C2\COc3ccccc3C2=O)cc1OC,active: 25.9 µM,–
O=C(Nc1cccnc1)c1ccccc1-c1ccccc1,–,inactive: 11.7%
COC(=O)c1ccc2nc(C3CCCCC3)c(CC(C)(C)C)n2c1,"inconclusive [cytotoxic, single point]",–

SMILES,Potency,"activity, negative = toxicity"
O=C(Cn1c(=O)c2cccn2c2ccc(F)cc21)NCCCN1CCN(c2ccccc2F)CC1,"inconclusive [cytotoxic, single point]",–
O=C(CCC(=O)N(CC(=O)NC1CCCC1)c1cccc(F)c1)Nc1nccs1,–,inactive: -11.4%
C=C1C(=O)O[C@H]2[C@H]1[C@H](OC(=O)/C(C)=C\C)C[C@]1(CO1)[C@@H]1[C@H](OC(C)=O)C=C(C)[C@]21O,"inconclusive [cytotoxic, single point]",–
O=C(NC(=S)Nc1ccccc1N1CCCCC1)c1ccccc1,–,inactive: -6.39%
C[C@H](O)[C@@H]1CN2CCc3c([nH]c4ccccc34)[C@@H]2C[C@@H]1N(C)C(=O)NC1CCCCC1,–,inactive: -27.1%
CS(=O)(=O)c1ncc(Cl)c(C(=O)Nc2ccc(OC(F)F)cc2)n1,active: 13 µM,–
O=C(NCC(c1cccnc1)N1CCN(c2ccccc2)CC1)c1ccco1 (stereo unspecified),–,inactive: 7.63%
CN(C)CCN1C(=O)C2C(C(=O)Nc3cc(Cl)cc(Cl)c3)C3C=CC2(O3)C1C(=O)NC1CCCCC1 (stereo unspecified),–,inactive: -10.9%
CC(=O)Oc1ccc2ccc(=O)oc2c1,"inconclusive [cytotoxic, single point]",–
O=c1oc2ccccc2c(Nc2ccc3ccccc3c2)c1[N+](=O)[O-],"inconclusive [cytotoxic, single point]",–
COc1ccccc1OCc1nnc(SCC(=O)N2CCCCC2)o1,–,inactive: -8.56%
CN(C)CCNC(=O)c1cc2sc3ccccc3c2s1,active: 23.1 µM,–
COC(=O)Cn1c(C)c(/C=C/c2cc[n+](C)cc2)c2ccccc21,–,inactive: 1.25%
CC/C(=N\N=C(/CC)c1ccccc1N)c1ccccc1N,–,inactive: 1.83%
Fc1ccccc1CNc1nc(NCC2CC2)nc2ccsc12,active: 20.6 µM,–
O=C(c1ccco1)N(CC1CCCO1)c1nc(-c2ccccc2)cs1 (stereo unspecified),"inconclusive [cytotoxic, single point]",–
CC1(C)CC(=O)c2sc(N3CCCCC3)nc2C1,–,inactive: 1.06%
O=c1[nH]c2ccc(Cl)cc2c(-c2ccccc2)c1N1CCN(CCO)CC1,"inconclusive [cytotoxic, single point]",–
